Laboratory results taken from PMC4823075.
No constants are given. Whether binding was seen depends on the method and setting. Binding seen in cells or lysates may run through a third protein. Some results given as binding are weak or reduced against the parent protein; the word gives no strength. Each block holds one substance with its values, some of them ahead of it.

Sequences of proteins named here, by UniProt entry; tags and fusion partners are left off. A change or cut given only in a name is not applied to a line headed by its entry. A line that says so, or that is headed by a name, gives the form on record, which may keep a tag or linker. Residues count along the entry.
UniProt P46527: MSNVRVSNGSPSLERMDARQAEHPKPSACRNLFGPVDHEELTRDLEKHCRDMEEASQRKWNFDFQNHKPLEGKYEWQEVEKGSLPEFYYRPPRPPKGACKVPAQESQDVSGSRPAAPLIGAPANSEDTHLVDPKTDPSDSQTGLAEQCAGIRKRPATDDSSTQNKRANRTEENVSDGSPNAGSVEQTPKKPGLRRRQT
pCMV-p27aa1-87 (N100): residues 1-87 of P46527
pCMV-p27aa82–198 (N101): residues 82-198 of P46527
c-Myc fused to the C-terminal fragment of YFP (MycYC) (P01106, residues 16-454): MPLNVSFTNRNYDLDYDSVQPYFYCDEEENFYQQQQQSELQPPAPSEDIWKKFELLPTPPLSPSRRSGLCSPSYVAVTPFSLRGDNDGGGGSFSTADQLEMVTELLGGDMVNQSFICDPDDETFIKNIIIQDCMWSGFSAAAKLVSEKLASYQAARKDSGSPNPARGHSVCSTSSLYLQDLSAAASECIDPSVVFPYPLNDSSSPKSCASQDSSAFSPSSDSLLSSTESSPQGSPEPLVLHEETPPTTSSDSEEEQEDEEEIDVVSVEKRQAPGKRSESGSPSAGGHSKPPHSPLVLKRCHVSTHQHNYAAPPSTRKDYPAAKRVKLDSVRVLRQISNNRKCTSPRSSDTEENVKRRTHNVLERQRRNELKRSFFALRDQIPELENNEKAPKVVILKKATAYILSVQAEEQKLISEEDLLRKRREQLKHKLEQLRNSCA
pCGN-HA-Myc95–439 (ΔN1) (P01106, residues 110-454): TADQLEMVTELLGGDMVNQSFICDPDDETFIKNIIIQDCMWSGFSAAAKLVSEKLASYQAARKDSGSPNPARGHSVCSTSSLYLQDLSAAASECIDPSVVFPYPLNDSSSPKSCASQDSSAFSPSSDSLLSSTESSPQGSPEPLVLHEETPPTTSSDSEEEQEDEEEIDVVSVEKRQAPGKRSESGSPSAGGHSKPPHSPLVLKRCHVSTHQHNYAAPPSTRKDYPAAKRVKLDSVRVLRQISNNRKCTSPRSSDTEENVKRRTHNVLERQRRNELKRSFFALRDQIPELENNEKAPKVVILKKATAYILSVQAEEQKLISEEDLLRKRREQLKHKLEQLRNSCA
pCGN-HA-Myc 148–439 (ΔN2) (P01106, residues 163-454): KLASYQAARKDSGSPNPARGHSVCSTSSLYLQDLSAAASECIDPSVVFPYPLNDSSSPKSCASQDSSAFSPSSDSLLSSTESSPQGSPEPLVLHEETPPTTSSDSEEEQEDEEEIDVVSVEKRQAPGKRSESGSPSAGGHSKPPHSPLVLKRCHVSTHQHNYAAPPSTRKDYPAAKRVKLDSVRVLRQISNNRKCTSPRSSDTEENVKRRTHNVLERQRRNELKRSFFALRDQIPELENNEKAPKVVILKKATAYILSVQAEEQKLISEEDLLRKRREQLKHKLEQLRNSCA
pCGN-HA-Myc 221–439 (ΔN3) (P01106, residues 236-454): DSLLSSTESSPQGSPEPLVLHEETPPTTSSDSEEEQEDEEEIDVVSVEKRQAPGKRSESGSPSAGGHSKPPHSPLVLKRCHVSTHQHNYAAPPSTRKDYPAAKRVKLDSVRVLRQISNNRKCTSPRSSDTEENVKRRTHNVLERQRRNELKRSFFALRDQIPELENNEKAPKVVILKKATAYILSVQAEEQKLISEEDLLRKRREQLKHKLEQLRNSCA
pCGN-HA-Myc 294–439 (ΔN4) (P01106, residues 309-454): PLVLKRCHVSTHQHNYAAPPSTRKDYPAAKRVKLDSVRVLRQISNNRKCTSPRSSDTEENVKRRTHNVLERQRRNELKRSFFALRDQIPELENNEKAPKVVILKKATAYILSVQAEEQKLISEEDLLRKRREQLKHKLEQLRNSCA

Columns and labels:
p27^Kip1 (pCMV-p27) [1] = target: p27^Kip1 (pCMV-p27) (UniProt P46527); experiment: co-IP; Cos 7 cells cotransfected with HA-Myc and wt p27 or N100; lysates immunoprecipitated with p27 BD antibodies (recognise the N-terminal part of p27), western blot with HA antibodies
pCMV-p27aa1-87 (N100) = pCMV-p27aa1-87 (N100) (UniProt P46527); experiment: as above
p27^Kip1 (pCMV-p27) [2] = target: p27^Kip1 (pCMV-p27) (UniProt P46527); experiment: co-IP; Cos 7 cells cotransfected with HA-tagged wt c-Myc or deletion derivatives and p27; lysates immunoprecipitated with p27 antibodies, western blot with HA antibodies
p27^Kip1 (pCMV-p27) [3] = target: p27^Kip1 (pCMV-p27) (UniProt P46527); experiment: co-IP; Cos 7 cells cotransfected with c-Myc and wt p27 or N101; lysates immunoprecipitated with Myc or p27 C-19 antibodies (recognise the C-terminal part of p27), western blot with Myc antibodies
pCMV-p27aa82–198 (N101) = pCMV-p27aa82–198 (N101) (UniProt P46527); experiment: as above
p27^Kip1 (pCMV-p27) [4] = target: p27^Kip1 (pCMV-p27) (UniProt P46527); experiment: co-IP; HCT116 Fbxw7-/- cells transfected with Myc, p27 or Myc + p27; lysates immunoprecipitated with p27 C-19 or Gal4 control antibodies, immunoblot with pan-Myc antibodies
p27-YN = p27-YN (UniProt P46527); experiment: split reporter; BiFC in Cos7 cells cotransfected with c-Myc-YC and p27-YN, or bFos-YC and p27-YN as control; signal analysed under a UV microscope

binding (p27^Kip1 (pCMV-p27) [1]): binds
binding (pCMV-p27aa1-87 (N100)): no binding
binding (p27^Kip1 (pCMV-p27) [2]): binds
Substance: HA-tagged c-Myc (pCGN-HA-Myc) (from UniProt P01106-1 1-439)

binding (p27^Kip1 (pCMV-p27) [3]): binds
binding (pCMV-p27aa82–198 (N101)): binds
binding (p27^Kip1 (pCMV-p27) [4]): binds
Substance: c-Myc (CMV-Myc expression vector) (from UniProt P01106-1 1-439)

binding (p27-YN): binds
Substance: c-Myc fused to the C-terminal fragment of YFP (MycYC) (from UniProt P01106-1 1-439)

binding (p27^Kip1 (pCMV-p27) [2]): binds
Substance: pCGN-HA-Myc95–439 (ΔN1) (from UniProt P01106-1 95-439) (domain or fragment)

binding (p27^Kip1 (pCMV-p27) [2]): binds
Substance: pCGN-HA-Myc 148–439 (ΔN2) (from UniProt P01106-1 148-439) (domain or fragment)

binding (p27^Kip1 (pCMV-p27) [2]): binds
Substance: pCGN-HA-Myc 221–439 (ΔN3) (from UniProt P01106-1 221-439) (domain or fragment)

binding (p27^Kip1 (pCMV-p27) [2]): binds
Substance: pCGN-HA-Myc 294–439 (ΔN4) (from UniProt P01106-1 294-439) (domain or fragment)
